Experimental data published in the supplement of paper PMC4604168 (melanoma cell lines).
This is one part of the list. Many values rest on one well or one pass, so single values are uncertain.

Legend:
Assay in all cases: cell count relative to DMSO control; melanoma cells; higher = more viable cells
Conditions in all cases: library dose: low library concentration; 72 h
[1] = tested on: WM115
[2] = tested on: WM1716
[3] = tested on: WM1745
[4] = tested on: WM3526
[5] = tested on: WM3619
[6] = tested on: WM451Lu
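Further: cell number obtained by counting DAPI-stained nuclei in high-throughput microscope images with image analysis software, screen run in 1,536-well plates.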

SMILES | cell count [1] | cell count [2] | cell count [3] | cell count [4] | cell count [5] | cell count [6]
Cn1cnc2c(F)c(Nc3ccc(Br)cc3Cl)c(C(=O)NOCCO)cc21 [selumetinib] + CS(=O)(=O)CCNCc1ccc(-c2ccc3ncnc(Nc4ccc(OCc5cccc(F)c5)c(Cl)c4)c3c2)o1 [lapatinib] (first compound 0.015 µM, partner dose 0.8 µM) | 83.5% | 120% | 103% | 77.4% | 60.9% | 105%
C[C@]1(O)C[C@@H](c2nc(-c3ccc4ccc(-c5ccccc5)nc4c3)c3c(N)nccn32)C1 + NC(=O)Nc1cc(-c2cccc(F)c2)sc1C(=O)N[C@H]1CCCNC1 [AZD7762] (first compound 0.4 µM, partner dose 0.02 µM) | 90.6% | 91.8% | 67.2% | 62.5% | 47.3% | 110%
CCN(CC)CCNC(=O)c1c(C)[nH]c(/C=C2\C(=O)Nc3ccc(F)cc32)c1C [sunitinib] + CC(C)CCN1c2nc(Nc3cc(F)c(O)c(F)c3)ncc2N(C)C(=O)C1C [BID1870] (first compound 0.4 µM, partner dose 0.2 µM) | 108% | 134% | 93.6% | 70.5% | 107% | 115%
CCN(CC)CCNC(=O)c1c(C)[nH]c(/C=C2\C(=O)Nc3ccc(F)cc32)c1C [sunitinib] + Nc1ccn([C@@H]2O[C@H](CO)[C@@H](O)C2(F)F)c(=O)n1 [gemcitabine] (first compound 0.4 µM, partner dose 0.0004 µM) | 125% | 145% | 75.9% | 82.5% | 81.7% | 93.6%
COc1cc([C@@H]2c3cc4c(cc3[C@@H](O[C@@H]3O[C@@H]5CO[C@@H](C)O[C@H]5[C@H](O)[C@H]3O)[C@H]3COC(=O)[C@H]23)OCO4)cc(OC)c1O [etoposide] + Cn1sc(=O)n(Cc2ccccc2)c1=O [TDZD-8] (first compound 0.02 µM, partner dose 0.4 µM) | 83.6% | 86.7% | 98.2% | 103% | 89.2% | 81.6%
C[C@]1(O)C[C@@H](c2nc(-c3ccc4ccc(-c5ccccc5)nc4c3)c3c(N)nccn32)C1 + CC(C)C[C@H](NC(=O)[C@H](Cc1ccccc1)NC(=O)c1cnccn1)B(O)O [Bortezomib] (first compound 0.4 µM, partner dose 0.001 µM) | 98.2% | 84.2% | 54.4% | 103% | 60.3% | 85%
COc1cc([C@@H]2c3cc4c(cc3[C@@H](O[C@@H]3O[C@@H]5CO[C@@H](C)O[C@H]5[C@H](O)[C@H]3O)[C@H]3COC(=O)[C@H]23)OCO4)cc(OC)c1O [etoposide] + CO[C@H]1C[C@@H]2CC[C@@H](C)[C@@](O)(O2)C(=O)C(=O)N2CCCC[C@H]2C(=O)O[C@H]([C@H](C)C[C@@H]2CC[C@@H](OCCO)[C@H](OC)C2)CC(=O)[C@H](C)/C=C(\C)[C@@H](O)[C@@H](OC)C(=O)[C@H](C)C[C@H](C)/C=C/C=C/C=C/1C [everolimus] (first compound 0.02 µM, partner dose 0.02 µM) | 76.9% | 76.5% | 90.6% | 111% | 62.4% | 106%
CCN(CC)CCNC(=O)c1c(C)[nH]c(/C=C2\C(=O)Nc3ccc(F)cc32)c1C [sunitinib] + CC1(C)NC(=O)N(c2ccc([N+](=O)[O-])c(C(F)(F)F)c2)C1=O [nilutamide] (first compound 0.4 µM, partner dose 1 µM) | 108% | 157% | 79.5% | 91.2% | 122% | 107%
CCN(CC)CCNC(=O)c1c(C)[nH]c(/C=C2\C(=O)Nc3ccc(F)cc32)c1C [sunitinib] + COc1ccc(-c2ccc3c(N4CCOCC4)nc(N4C[C@@H](C)O[C@@H](C)C4)nc3n2)cc1CO [KU0063794] (first compound 0.4 µM, partner dose 0.02 µM) | 83.4% | 127% | 80.1% | 73.3% | 111% | 102%
CCN(CC)CCNC(=O)c1c(C)[nH]c(/C=C2\C(=O)Nc3ccc(F)cc32)c1C [sunitinib] + C=C(c1ccc(C(=O)O)cc1)c1cc2c(cc1C)C(C)(C)CCC2(C)C [Bexarotene] (first compound 0.4 µM, partner dose 2 µM) | 121% | 132% | 81.6% | 81.2% | 136% | 71.1%
CCN(CC)CCNC(=O)c1c(C)[nH]c(/C=C2\C(=O)Nc3ccc(F)cc32)c1C [sunitinib] + Cc1cc(Nc2cc(N3CCN(C)CC3)nc(/C=C/c3ccccc3)n2)n[nH]1 [ENMD2076] (first compound 0.4 µM, partner dose 0.04 µM) | 96% | 164% | 97.4% | 83.8% | 115% | 125%
CCN(CC)CCNC(=O)c1c(C)[nH]c(/C=C2\C(=O)Nc3ccc(F)cc32)c1C [sunitinib] + Oc1nc(-c2ccc(C(F)(F)F)cc2)nc2c1CSCC2 [XAV939] (first compound 0.4 µM, partner dose 2 µM) | 102% | 98.7% | 66.4% | 73.5% | 98.8% | 93.6%
CCN(CC)CCNC(=O)c1c(C)[nH]c(/C=C2\C(=O)Nc3ccc(F)cc32)c1C [sunitinib] + CN(c1ncccc1CNc1nc(Nc2ccc3c(c2)CC(=O)N3)ncc1C(F)(F)F)S(C)(=O)=O [PF562271] (first compound 0.4 µM, partner dose 0.08 µM) | 103% | 130% | 63.8% | 103% | 115% | 89.2%
COc1cc([C@@H]2c3cc4c(cc3[C@@H](O[C@@H]3O[C@@H]5CO[C@@H](C)O[C@H]5[C@H](O)[C@H]3O)[C@H]3COC(=O)[C@H]23)OCO4)cc(OC)c1O [etoposide] + N#Cc1c(O)c2c(-c3ccc(-c4ccccc4O)cc3)csc2[nH]c1=O [A769662] (first compound 0.02 µM, partner dose 2 µM) | 91.2% | 88.8% | 109% | 92.3% | 113% | 86.6%
COc1cc([C@@H]2c3cc4c(cc3[C@@H](O[C@@H]3O[C@@H]5CO[C@@H](C)O[C@H]5[C@H](O)[C@H]3O)[C@H]3COC(=O)[C@H]23)OCO4)cc(OC)c1O [etoposide] + Cc1ccc(NC(=O)c2cccc(N(C)C)c2)cc1NC(=O)c1ccc(O)cc1 [ZM336372] (first compound 0.02 µM, partner dose 2 µM) | 102% | 105% | 88.1% | 109% | 93.2% | 95.6%
Cn1cnc2c(F)c(Nc3ccc(Br)cc3Cl)c(C(=O)NOCCO)cc21 [selumetinib] + O=C(Nc1cccc(Cl)c1)Nc1ncc(CCNc2ncnc3ccsc23)s1 [SNS314] (first compound 0.015 µM, partner dose 0.0008 µM) | 93.9% | 118% | 82.5% | 88.5% | 77.6% | 101%
C[C@]1(O)C[C@@H](c2nc(-c3ccc4ccc(-c5ccccc5)nc4c3)c3c(N)nccn32)C1 + c1cc(-c2cnn3cc(-c4ccc(OCCN5CCCCC5)cc4)cnc23)ccn1 [Dorsomorphin] (first compound 0.4 µM, partner dose 0.4 µM) | 95.3% | 104% | 78.4% | 88.1% | 82.6% | 62.2%
Cn1cnc2c(F)c(Nc3ccc(Br)cc3Cl)c(C(=O)NOCCO)cc21 [selumetinib] + CS(=O)(=O)c1ccc(C(=O)Nc2ccc(Cl)c(-c3ccccn3)c2)c(Cl)c1 [vismodegib] (first compound 0.015 µM, partner dose 1 µM) | 92.5% | 95.1% | 86.4% | 87.1% | 72.5% | 129%
C[C@]1(O)C[C@@H](c2nc(-c3ccc4ccc(-c5ccccc5)nc4c3)c3c(N)nccn32)C1 + Cc1cc([N+](=O)[O-])ccc1NS(=O)(=O)c1cc(Cl)ccc1Cl [FH535] (first compound 0.4 µM, partner dose 1 µM) | 92.5% | 93.3% | 76% | 77% | 89.2% | 88.4%
Cn1cnc2c(F)c(Nc3ccc(Br)cc3Cl)c(C(=O)NOCCO)cc21 [selumetinib] + COc1cc(N2CCC(N3CCN(C)CC3)CC2)ccc1Nc1ncc(Cl)c(Nc2ccccc2S(=O)(=O)C(C)C)n1 [NVP-TAE684] (first compound 0.015 µM, partner dose 0.08 µM) | 81.2% | 85% | 114% | 67.7% | 88.1% | 93.6%
Cn1cnc2c(F)c(Nc3ccc(Br)cc3Cl)c(C(=O)NOCCO)cc21 [selumetinib] + COC(=O)c1sccc1S(=O)(=O)Nc1ccc(Nc2ccccc2)cc1OC [GSK0660] (first compound 0.015 µM, partner dose 1 µM) | 90% | 128% | 103% | 68.7% | 56.9% | 93.5%
CCN(CC)CCNC(=O)c1c(C)[nH]c(/C=C2\C(=O)Nc3ccc(F)cc32)c1C [sunitinib] + CNC(=O)c1cc(Oc2ccc(NC(=O)Nc3ccc(Cl)c(C(F)(F)F)c3)cc2)ccn1 [sorafenib] (first compound 0.4 µM, partner dose 0.4 µM) | 93.8% | 147% | 71.4% | 79.9% | 122% | 109%
CCN(CC)CCNC(=O)c1c(C)[nH]c(/C=C2\C(=O)Nc3ccc(F)cc32)c1C [sunitinib] + COCC[n+]1c2c(n(Cc3cnccn3)c1C)C(=O)c1ccccc1C2=O [YM155] (first compound 0.4 µM, partner dose 0.0004 µM) | 100% | 118% | 96.2% | 87.7% | 102% | 73.5%
